Laboratory results from article PMC4336329 (PLoS ONE, 2015).
In all, about 310,000 compounds went through this assay and about 2,200 (0.71%) showed an effect of 50% or more. The effect is printed as a negative number. The list shows a part of the results.

Molecular target: human ether-à-go-go-related gene (hERG) potassium channel (human, UniProt Q12809)
Assay: primary screen, population patch clamp on CHO cells stably expressing hERG

Sequence of human ether-à-go-go-related gene (hERG) potassium channel (Q12809 whole entry, looked up): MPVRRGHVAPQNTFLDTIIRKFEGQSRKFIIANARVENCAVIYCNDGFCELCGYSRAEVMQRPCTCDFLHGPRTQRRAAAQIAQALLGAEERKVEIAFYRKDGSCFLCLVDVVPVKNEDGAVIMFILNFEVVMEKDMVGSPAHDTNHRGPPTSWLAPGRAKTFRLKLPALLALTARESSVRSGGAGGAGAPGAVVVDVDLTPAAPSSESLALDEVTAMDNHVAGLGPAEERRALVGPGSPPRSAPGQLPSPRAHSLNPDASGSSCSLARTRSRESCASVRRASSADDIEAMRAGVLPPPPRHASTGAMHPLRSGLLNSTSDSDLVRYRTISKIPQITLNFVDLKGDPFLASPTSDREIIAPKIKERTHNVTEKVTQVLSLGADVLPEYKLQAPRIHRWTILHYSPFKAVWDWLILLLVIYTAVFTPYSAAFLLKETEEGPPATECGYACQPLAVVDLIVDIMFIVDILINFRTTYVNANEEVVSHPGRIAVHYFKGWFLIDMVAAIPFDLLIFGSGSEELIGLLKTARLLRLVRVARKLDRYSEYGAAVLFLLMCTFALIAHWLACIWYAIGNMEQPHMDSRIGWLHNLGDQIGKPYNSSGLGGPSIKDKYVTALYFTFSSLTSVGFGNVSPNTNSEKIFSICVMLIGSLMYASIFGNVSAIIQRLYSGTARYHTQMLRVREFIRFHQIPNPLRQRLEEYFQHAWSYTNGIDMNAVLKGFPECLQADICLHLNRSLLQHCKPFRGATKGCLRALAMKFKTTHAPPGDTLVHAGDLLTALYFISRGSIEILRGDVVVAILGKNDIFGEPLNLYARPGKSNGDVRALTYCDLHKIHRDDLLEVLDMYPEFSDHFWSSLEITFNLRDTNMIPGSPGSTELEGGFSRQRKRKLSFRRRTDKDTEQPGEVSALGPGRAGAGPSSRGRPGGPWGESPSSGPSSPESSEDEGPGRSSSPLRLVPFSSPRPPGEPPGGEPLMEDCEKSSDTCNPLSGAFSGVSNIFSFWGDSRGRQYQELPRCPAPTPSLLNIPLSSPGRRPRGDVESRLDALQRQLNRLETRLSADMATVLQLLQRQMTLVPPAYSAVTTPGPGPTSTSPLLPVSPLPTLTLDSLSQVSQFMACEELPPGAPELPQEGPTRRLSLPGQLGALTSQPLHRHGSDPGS

Row | Structure (SMILES) | hERG current change (%, negative = inhibition) at 1uM [%]
1 | CN(Cc1ccccc1)C1CCN(Cc2ccccc2[N+](=O)[O-])CC1.O=C(O)C(=O)O | -1.08
2 | Cc1c(C(=O)NC2CC2)oc2ccccc12 | 3.03
3 | CCOc1c(OC(C)=O)ccc(/C=C/c2ccc3cccc(OC)c3n2)c1[N+](=O)[O-] | 6.52
4 | COC(=O)C1C(=O)C2=C(CC1C)NC(=O)CC2c1ccc(O)c(OC)c1 (centres unmarked) | 12.3
5 | Cc1ccc(O)c(/C=N/NC(=O)Cc2ccc(Cl)cc2)c1 | 11.8
6 | CCc1cc2c(=O)[nH]c(-c3ccncc3)nc2s1 | 12.2
7 | COc1ccc2nc(Nc3nc(-c4cc5ccccc5oc4=O)cs3)sc2c1 | 8.08
8 | CN(C)c1ccc(-c2n[nH]c(=S)n2-c2ccccc2)cc1 | 14.8
9 | CC(C)(C)N(Cc1ccccc1)C(=O)CSc1nnc(CNc2ccc(F)cc2)o1 | 2.58
10 | O=C(CNC(=O)c1ccc(Br)o1)NC1CCCCCC1 | 2.06
11 | CCn1c(=O)n(CC(=O)N2CCN(c3ccccc3F)CC2)c(=O)c2ccccc21 | 1.36
12 | Cc1cc(O)c(/C=N/OCc2ccc(Cl)cc2Cl)c(=O)o1 | 14.7
13 | CCOC(=O)c1sc(C)c(C(=O)NC2CCCCC2)c1N | 10.7
14 | Brc1ccc(-c2csc(N3CCc4ccccc4C3)n2)cc1 | 12.7
15 | CSc1ccccc1-c1nnc(-c2ccccc2)o1 | 11.6
16 | COc1ccccc1CCNC(=O)Nc1cccc([N+](=O)[O-])c1 | 9.1
17 | CNc1cc(N2CCNCC2)ccc1[N+](=O)[O-] | 14.8
18 | CCOC(=O)N1CCN(S(=O)(=O)c2ccc(C)c(C)c2C)CC1 | 9.56
19 | COc1ccc(NC(=O)NC23CC4CC(CC(C4)C2)C3)cc1OC | 15.9
20 | CC(=O)Nc1ccccc1C(=O)N1CC2(C)CC1CC(C)(C)C2 (centres unmarked) | 10.7
21 | CN(CCO)c1ccc(C(C(=O)c2ccccc2)c2ccc(N(C)CCO)cc2)cc1 | 11.2
22 | CCCn1c(NC(=S)Nc2ccccc2)nc2ccccc21 | 10.4
23 | Cc1cccc(-c2nc(CC(=O)Nc3cccc(S(=O)(=O)NC4=NCCC4)c3)cs2)c1 | 8.17

Row | Structure (SMILES) | hERG current change (%, negative = inhibition) at 1uM [%]
24 | O=c1oc2ccccc2c(Nc2ccc(F)cc2)c1[N+](=O)[O-] | 6.77
25 | Cc1csc(Sc2nc3c(c(=O)[nH]c(=O)n3C)n2Cc2ccccc2Cl)n1 | 9.33
26 | O=C1c2nccnc2C(=O)N1c1ccc(C(F)(F)F)cc1 | 14
27 | CCOC(=O)CC1C(=O)NCCN1C(=O)COc1ccc(C(C)(C)C)cc1 (centres unmarked) | 13.9
28 | COc1ccc(/C=N/NC(=O)c2ccn[nH]2)cc1COc1ccc(Cl)cc1 | 13
29 | Cc1cc(=O)[nH]c2nnc(-c3ccc(Br)cc3)n12 | 9.25
30 | Cc1cc2c(=O)n(CC(=O)NCC(=O)Nc3ccc(C(C)C)cc3)cnc2s1 | 10.5
31 | CC(=O)Nc1cccc(N2C(=O)CC(N3CCC(C(=O)N4CCCCC4)CC3)C2=O)c1 (centres unmarked) | 17.6
32 | CC(=O)Nc1cccc(C(=O)OCC(=O)NNC(=O)c2ccc([N+](=O)[O-])cc2)c1 | 4.07
33 | CCCc1cc(=O)[nH]c(SCC(=O)c2cc(C)n(C)c2C)n1 | 2.29
34 | O=C(Nc1ccccc1Cl)NC1(C(=O)NCCCN2CCOCC2)CCCCC1 | 10.2
35 | O=C(CCN1CCCO1)NC1CCCc2c1cnn2-c1ccccc1F (centres unmarked) | 22.8
36 | CCOC(=O)c1ccc(NC(=S)NCCCN2CCOCC2)cc1 | 14.2
37 | OC1(c2ccc(F)cc2)CCN(Cc2nnnn2Cc2cccs2)CC1 | 4.25
38 | Cc1[nH]c2ccccc2c1C(=O)NS(=O)(=O)Nc1ccccc1 | 14.6
39 | Cc1ccc(CN(C(=O)c2sc3ccccc3c2Cl)C2CCS(=O)(=O)C2)cc1 (centres unmarked) | -1.23
40 | COC(=O)c1ccsc1NC(=O)CSc1nnnn1Cc1ccccc1 | 0.681
41 | COc1cccc(O[C@@H]2O[C@@H]3COC(C)(C)O[C@H]3[C@H](O)[C@H]2NC(C)=O)c1 | 3.2
42 | O=C(OCc1ccccc1Cl)c1ccccc1C(=O)c1ccccc1 | 7.03
43 | O=C(C1=NN[C@@H]2C(=O)N(c3cccc(F)c3)C(=O)[C@H]12)C(c1ccccc1)c1ccccc1 | -15.7
44 | CCOc1ccc(/C(O)=C2/C(=O)C(=O)N(CC3CCCO3)C2c2ccc(C)o2)cc1 (centres unmarked) | 13.2
45 | COCCNC(=O)c1onc(CCl)c1C(=O)OC | 4.13
46 | CCC(=O)NCCNc1ccc([N+](=O)[O-])cn1 | 1.37

Row | Structure (SMILES) | hERG current change (%, negative = inhibition) at 1uM [%]
47 | CCOc1ccc(-c2nc(-c3ccc(OC)cc3)no2)cc1OCC | 11.8
48 | COc1ccc(Cc2noc(CN3CCCN(C4Cc5ccccc5C4)CC3)n2)cc1OC | -44.4
49 | COc1cccc(/C=N/Nc2cc(-n3nc(C)cc3-c3ccccc3)ncn2)c1O | 15.2
50 | CCOC(=O)C1=C(C)N(CC(C)C)C(=O)/C1=C\c1cccs1 | 3.84
51 | COc1ccccc1NC(=O)c1cc(S(=O)(=O)N2CCCC2)cn1C | -2.89
52 | Cc1cccc(C(=O)Nc2nnc(SCC(=O)Nc3ccc4c(c3)oc3ccccc34)s2)c1 | 12.2
53 | Cc1cc(NC(=O)c2ccc(Cn3cc([N+](=O)[O-])cn3)o2)no1 | 11.2
54 | CC1(C)NC(=O)N(CC(=O)N2CCC(Cc3ccccc3)CC2)C1=O | -7.16
55 | COc1ccc(S(=O)(=O)Nc2ccc(Oc3ncccn3)c(Cl)c2)cc1 | 5.3
56 | Cc1ccc(-n2c(SCC(=O)N3c4ccccc4Sc4ccccc43)nnc2-c2ccncc2)cc1 | 3.46
57 | COc1ccc(C)cc1NC(=O)COC(=O)C1CCN(C(=O)c2ccc(Cl)cc2)CC1 | -57.7
58 | CCCN(CCC)Cc1c(C(=O)N/N=C/c2ccco2)nnn1-c1nonc1N | 9.02
59 | CC(=O)Nc1cccc(-c2cc(-c3c(Cl)cccc3Cl)no2)c1 | 10
60 | Cc1ccsc1/C=N/NC(=O)Cc1ccc(Cl)cc1 | 7.37
61 | O=C(O)/C=C/C(=O)Nc1ccccc1C(=O)Nc1ccccc1 | 14.9
62 | COc1ccc(NC(=O)CN2c3cccc4cccc(c34)S2(=O)=O)cc1 | 18.7
63 | COc1ccc(CC(=O)OCc2cc3ccc(C)cc3[nH]c2=O)cc1 | 15.2
64 | Nc1nc2ccccc2n1/N=C/c1ccc([N+](=O)[O-])s1 | 4.64
65 | CCOc1cc(/C=N/NC(=O)CN2CCCCC2)ccc1OCc1cccc(Cl)c1 | 12.3
66 | CCOC(=O)N1C(=O)[C@](CC)(c2ccccc2)N1C(=O)OCC | 10.7
67 | CCc1ccc(NS(=O)(=O)c2ccc(OC)c3ncccc23)cc1 | 15.2
68 | Cc1cccc(Nc2nn3c(=O)c4ccccc4nc3s2)c1 | 19.6
69 | O=C1OC(Nc2ccc(Br)cn2)c2ccccc21 (centres unmarked) | 10.6

Row | Structure (SMILES) | hERG current change (%, negative = inhibition) at 1uM [%]
70 | O=c1c2ccccc2nc(-c2ccoc2)n1CCc1ccccc1 | 5.06
71 | O=C(O)c1cc2ccc3ccccc3c2oc1=O | 19.4
72 | NC(=O)c1ccc(NC(=O)COc2ccc(-n3cnnn3)cc2)cc1 | 2.15
73 | CC(NC(=O)/C=C/c1ccccc1)c1ccccc1 (centres unmarked) | 1.21
74 | C/C(=N\NC(=O)CNC(=O)c1cccnc1)c1cccc(O)c1 | 10.4
75 | O=C(Oc1cccc2ccccc12)c1ccco1 | 17.3
76 | Cc1ccc(Cl)cc1N1CCN(C2CCCCC2NS(=O)(=O)c2ccccc2)CC1 (centres unmarked) | 12.3
77 | COCCN(C(=S)Nc1ccc(OC)cc1)C1CCN(C(C)=O)CC1 | 16.4
78 | CCC(=O)c1ccc(OCC(=O)Nc2cc(S(=O)(=O)N3CCCCC3)ccc2N2CCN(CC)CC2)cc1 | -24.2
79 | COc1ccc(/C=N/NC(=O)CCSc2nc3ccccc3s2)cc1 | -0.177
80 | CCCN(CCC)c1ncnc2nc[nH]c12 | -0.384
81 | CCOC(=O)C1=C(CCc2ccccc2)NC(=O)NC1c1ccc(C#N)cc1 (centres unmarked) | 12.5
82 | COC(=O)C1(C(C[N+](=O)[O-])c2ccc(C)cc2)C(=O)NCC1c1ccco1 (centres unmarked) | 11.5
83 | O=C(O)c1ccc(CSc2nc3ccccc3[nH]2)cc1 | 6.78
84 | CNc1nnc(-c2ccc(C)cc2)c2ccccc12 | -5.45
85 | COc1ccc(C(=O)Nc2ccc(C(=O)NCCc3ccccc3)cc2)cc1 | 9.85
86 | Cc1cc(NC(=O)CN2C(=O)NC(C)(c3ccc(Cl)cc3)C2=O)no1 (centres unmarked) | 25.5
87 | COc1cccc(NC(=O)C2CCCO2)c1 (centres unmarked) | 11.7
88 | CCNC(=O)c1sc2cc(C)ccc2c1Cl | 2.67
89 | O=S(=O)(c1ccc(Br)cc1)c1nc(-c2ccco2)oc1NCC1CCCO1 (centres unmarked) | 5.67
